Source: PubChem BioAssay (NCATS)
The shares of active, inactive and inconclusive entries below differ from those in the screen. Potencies of inconclusive entries are doubtful fits and often do not repeat. The source made the active and inactive calls. Calls follow the shape of the dose curve; as a rule, active = well fitted activation curve with a large enough effect in the signal ratio, with a control signal flat (not every such curve was filed as active); inconclusive = small, poorly fitted or top-dose-only effect, or effect the other way, or a change in a side signal; inactive = flat fitted curve, though single readings scatter; the % refers to the signal ratio.

assay: qHTS Assay for Identification of Small Molecule Agonists for Hypoxia Response Element Signaling Pathway (AID 914); settings: ME-180 (cervical carcinoma) HRE-bla reporter, beta-lactamase ratio, CoCl2, 17 h; activation: hits give high values; as to activation: top concentration of the series differs between compounds; % of control where 0% means no effect
How it was run: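 AC50 values come from titration-series %Activity, taken as the 460/530nm ratio of CCF4 fluorescence (excitation 405nm). CellSensor HRE-bla ME-180 cells were treated 17 hours at 37 C with compound plus an EC50 level of CoCl2.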
Potency is read from the fitted curve at half-maximal effect; tags tell the direction and shape of the fitted curve or compound fluorescence and quenching.

Q: With CN1C(=O)c2ccc(N(C)C)cc2C1=O as the compound, how does the activation read?
A: inactive: 14.5%

Q: Which Potency does the source give for Cc1cc(NCC2CCCO2)n2c(nc3ccccc32)c1C#N (stereo not given) here?
A: inconclusive: 2000 nM [inhibitor, full curve]

Q: For CCOC(=O)Cn1c(SC)nc2sc3c(c2c1=O)CC(C)(C)OC3, which activation is on record?
A: inconclusive: 31.2%

Q: Which Potency does the source give for CCCCOC(=O)CSC1=C(C#N)C(c2ccc3c(c2)OCO3)CC(=O)N1 (stereo not given) here?
A: inconclusive: 12600 nM [inhibitor, single point]

Q: For COC(=O)C1=C(N)Oc2cc(C)oc(=O)c2C1c1ccncc1 (stereo not given), which activation is on record?
A: inactive: 12.2%

Q: With COc1cc([C@@H]2[C@H]3CN(C)CC=C3C(C#N)=C(N)C2(C#N)C#N)cc2c1OCO2 as the compound, how does the Potency read?
A: inconclusive: 2000 nM [inhibitor, partial curve]

Q: For NC(Cc1ccccc1)=NCC(=O)O, which Potency is on record?
A: inconclusive: 100 nM [inhibitor, partial curve]

Q: Which Potency does the source give for Cc1c(C(=O)O)c(=S)sn1CCOc1ccccc1 here?
A: inconclusive: 3980 nM [inhibitor, full curve]

Q: Which activation does the source give for CC(C)OC(=O)[C@H]1[C@H](c2ccc(Cl)cc2)[C@@](C#N)(C(N)=O)[C@@H]2C=CC(C(N)=O)=CN21 here?
A: inconclusive: -30.5%

Q: For CCN1C(=O)[C@H]2[C@H]3[C@H](O)[C@H](O)C/C(=N/O[C@@H](C)c4cn([C@H]5COC[C@H]5O)nn4)[C@@H]3CC[C@@H]2C1=O, which activation is on record?
A: inconclusive: -3.48%

Q: Which Potency does the source give for O=C1c2cc([N+](=O)[O-])ccc2-c2ccc3c4ccc5c6c(ccc(c7ccc1c2c73)c64)C(=O)c1cc([N+](=O)[O-])ccc1-5 here?
A: inconclusive: 2000 nM [inhibitor, partial curve]

Q: For COc1ccc(-n2c(=O)c(-c3ccccc3)nc3cnc(N4CCOCC4)nc32)cc1, which activation is on record?
A: inactive: -1.88%

Q: For CC(C)=NNc1ncnc2nc[nH]c12, which Potency is on record?
A: inconclusive: 15.8 nM [inhibitor, single point]

Q: Which activation does the source give for NC(=O)Nc1n[nH]c(-c2ccccc2)n1 here?
A: inactive: 12.6%

Q: Which activation does the source give for CCCOc1ccc(Cn2c(O)cc(=O)[nH]c2=O)cc1 here?
A: inactive: 16.1%

Q: Which activation does the source give for CNc1ccccc1-c1nc2ccccc2n(C)c1=O here?
A: inactive: -4.3%

Q: For O=C(O)c1cc(C(=O)O)nc(C(=O)O)c1, which Potency is on record?
A: inconclusive: 5010 nM [inhibitor, single point]

Q: Which activation does the source give for COc1ccc(CNC(=O)c2c(C)cc(=O)oc2C)cc1OC here?
A: inactive: 12.6%

Q: For OCCCSCCO, which activation is on record?
A: inactive: 7.65%

Q: For Nc1ncnc2c1ncn2[C@H]1O[C@@H](CO)[C@@H](O)[C@H]1N, which activation is on record?
A: inconclusive: 6.76%

Q: With O=C(O)C1CSC(CCc2ccccc2)N1 (stereo not given) as the compound, how does the Potency read?
A: inconclusive: 7940 nM [activator, partial curve]

Q: Which activation does the source give for CN1C(=S)SC(N(O)C(=O)Nc2ccccc2)C1(C)C (stereo not given) here?
A: inconclusive: -38.4%

Q: With COc1ccc(Oc2ncc3nc(C)c(=O)n(C[C@H]4CCCO4)c3n2)cc1 as the compound, how does the activation read?
A: inactive: -5.29%

Q: Which Potency does the source give for CC(Sc1nc(N2CCCCC2)c2c(c1C#N)CCCC2)C(=O)O (stereo not given) here?
A: inconclusive: 398 nM [inhibitor, full curve, poor fit]

Q: Which activation does the source give for N#CC12CCCCC1CC1CCCCC1(C#N)N2Cc1cccnc1 (stereo not given) here?
A: inactive: 9.28%

Q: For N=c1ccn2c(n1)O[C@H]1[C@@H](OP(=O)(O)O)[C@H](CO)O[C@H]12, which Potency is on record?
A: inconclusive: 100 nM [inhibitor, single point]

Q: For CO/N=C\[C@@H](NS(=O)(=O)c1ccc(C)cc1)[C@H](C)/C=C\CC(=O)OC, which activation is on record?
A: inconclusive: 13.7%

Q: With O=C(O)COc1c(Cl)cc(Cl)c2cccnc12 as the compound, how does the Potency read?
A: inconclusive: 3160 nM [inhibitor, single point]

Q: For CCOc1ccc(Cc2nc(N)nc(N)n2)cc1, which activation is on record?
A: inconclusive: 39.9%

Q: Which activation does the source give for CC[C@H]1CN(C)[C@H]2Cc3c([nH]c4ccccc34)C(=O)C[C@H]1[C@H]2C(=O)OC here?
A: inconclusive: -4.25%

Q: For CC1(C)CC(=O)C(C=NCCN2CCN(C(=O)C34CC5CC(CC(C5)C3)C4)CC2)=C(O)C1, which activation is on record?
A: inconclusive: -33.5%

Q: For O=C1C2ON(c3ccccc3)C(c3cccnc3)C2C(=O)N1c1ccc(Cl)c(Cl)c1 (stereo not given), which activation is on record?
A: inactive: 2.42%

Q: Which activation does the source give for COC(=O)c1ccc(Cn2nnc3c(sc4nc(N5CCOCC5)c5c(c43)CCCC5)c2=O)o1 here?
A: inconclusive: -4.5%

Q: With NCc1nnn(Cc2ccccc2)c1N as the compound, how does the activation read?
A: inconclusive: 10.8%

Q: Which activation does the source give for Cc1cc(=O)oc(C)c1C(=O)NC1CC(C)(C)NC(C)(C)C1 here?
A: inconclusive: -3.12%

Q: Which activation does the source give for Cc1c(C(=O)O)nc(/C=C\C(=O)O)[nH]c1=O here?
A: inactive: 12.3%

Q: With C/C(=N/NS(=O)(=O)c1ccc(C)cc1)P(=O)(O)O as the compound, how does the activation read?
A: inconclusive: 9.55%

Q: Which activation does the source give for C=CC[C@@H]1C=C[C@H](O/N=C\[C@@H](C)[C@H](OCc2ccccc2)C(C)C)[C@H](CO)O1 here?
A: inconclusive: -3.47%

Q: With CCCCOc1ccccc1/C=c1/sc2nc(-c3oc4ccccc4c3C)nn2c1=O as the compound, how does the Potency read?
A: inconclusive: 2510 nM [inhibitor, single point]

Q: For CCN(CC)C(=O)C1CCN(c2ncnc3c2cnn3-c2ccc(C)cc2C)CC1, which Potency is on record?
A: inconclusive: 794 nM [inhibitor, partial curve, poor fit]
